Experimental data from the supplement of paper PMC11417369.
± gives the standard deviation of the averaged measurements. This is one part of the list.

Test system: PfAP2-G AP2 domain (GST-tagged)
Assay: gcPBM binding intensity (ln(normalized median fluorescence intensity)); higher = stronger DNA binding
Summary of the method: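 After 1 h on an Agilent 4 × 180k array of primer-extended double-stranded 36-bp intergenic genomic probes and negative controls, bound GST-tagged P. falciparum DNA-binding domains were detected with Alexa488 anti-GST antibody and scanned at 488 nm. The domains had been expressed in E. coli, and binding took place in 1× PBS with 1% milk, 0.2 mg/ml BSA, 0.5% salmon testes DNA and 0.03% Triton X-100. Binding intensity is the highest Masliner-normalised natural-log median intensity across replicate spots of either probe orientation.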

Sequence	gcPBM binding intensity (ln)
TACTTTTTTTTTTTTTTTTTTTTTTTTTCCCTTTTT [CACACA_negctrl_site761]	9.84 ± 0.28
TTTTATTTATATATAGTGCATATTATTATAAAACAA	9.98 ± 0.38
GTTTATTTATTATAATGTACATTAGTCTGAGGAGTT [XGTACX_site4035]	11 ± 0.66
ATATATATATATATATGTACATATGTTAATCTGCAT [XGTACX_site1068]	11.2 ± 0.7
CTTTTTTTCCATTAAGCATGCACATTCATATTTACT [TGCATGCA_site170]	10.3 ± 0.17
ATAGAAGAAATATGCACACATACATTGAAATGTTTT [CACACA_site321]	9.99 ± 0.042
CACATACACATACAAACACACATTAGATATAAATAT [CACACA_site6854]	9.99 ± 0.18
AAAAAAAATTAATAGGGTACATGAAAAGTGGAATAT [XGTACX_site618]	11.2 ± 0.61
TGAACACGCACAAATACACACAAAAAAAATAAATAA [CACACA_site6257]	10.2 ± 0.4
CCATTAAGACACATTGCACACGTGCACCCATAGAAA [CACACA_site4388]	10.7 ± 0.6
AAAAAAAAATTAAAAACACACATATAAATAAATATA [CACACA_site6845]	9.62 ± 0.2
AACAAAATAGGGAACACACACATGTCAATATATAAA [CACACA_site2596]	10.4 ± 0.3
TTTTTTTTTAAATAATGTACTTTTCATTATTTAGAT [XGTACX_site1706]	11.2 ± 0.73
TTTTTATTTATTAATACACACACACCCACCCACAAA [CACACA_site7965]	10.9 ± 0.67
AAAGAAAAAAATAATTGTACATTTATATTTAATTTA [XGTACX_site8003]	10.8 ± 0.54
AGATATAATAAATATACACACATATATATATATATA [CACACA_site962]	10.2 ± 0.53
TTTTTTTTTTTTTTTTGTACGTAATATATGATTAAT [XGTACX_site6876]	11.4 ± 1.1
CATTTTATCAAAAGTGGTACAACCCTTTCAAAAAAT [XGTACX_site341]	11.4 ± 1.1
AAATTACTTTCACAGTGTACTTGGAAAAAAAAAAGA [XGTACX_site1046]	11.3 ± 0.8
TTTAACATAAATTAAACACACAATATAATACATTAA [CACACA_site1237]	9.83 ± 0.085
TAATTTTATATATGCACACAAAATATGTTCATATAA [CACACA_site4076]	10.3 ± 0.28
TGAAAAATGTTGATGTGTACTTATATAGTGTGTTAA [XGTACX_site2100]	11.3 ± 0.82
TTTTTTTTTTTTGTCACACATATATTTGTATTTATA [CACACA_site5234]	10 ± 0.41

Sequence	gcPBM binding intensity (ln)
TGATATTTATAATAAATATTATAATAAAATCAAACA [XGTACX_negctrl_site219]	9.725 ± 0.021
ATATATATTTAAATGTGTACTCATTTATTTTATGTC [XGTACX_site4984]	11.5 ± 0.9
ATAGTATAACAGCAATGTACACATATTTGTGTATAT [XGTACX_site7899]	11.3 ± 0.67
TATATATATAAACACACACACACATATATATATATT [CACACA_site8814]	9.94 ± 0.16
TTTTTTTTTTTTTGCACACACATATATAGATATATA [CACACA_site7784]	10 ± 0.4
ATAAAATTGTTTAAATGTACATATGAACAGTCAGTA [XGTACX_site5140]	11.4 ± 0.69
ATATATGTAATAAATAGTACACACACACATATATAT [XGTACX_site2817]	11.5 ± 1
ATATATATTTTTATTTGTACATAATTTTTTTTGTGA [XGTACX_site6378]	11.1 ± 0.67
ATATATTAATTTAATTGTACGAATAAAAAAAAAAAA [XGTACX_site223]	10.9 ± 0.83
TATATACATTTATGTACACACACATATATGTATATT [CACACA_site8971]	11.4 ± 0.99
AAAGCACCCAAGAATACACACAAATATTATAAAAAA [CACACA_site111]	10.2 ± 0.33
ACGTATTAGATAAATACACACACAAGCATATATTTT [CACACA_site9135]	9.97 ± 0.16
TAATGTATTATATTTAGTACATATAAAAATAATTTT [XGTACX_site6886]	11.2 ± 0.72
ATATATATAATATAATGTACATATATTTTATTTTTA [XGTACX_site3819]	11.1 ± 0.7
TTTCATCTATATGAAACACACAAAGGAAAAAAAATT [CACACA_site7869]	10.3 ± 0.19
ATATATATTGTACTAGTGCATATATATACATATATT	11.2 ± 0.83
ATAAATAAAAACACAAAACAAAACAAAACAAAACAA [CACACA_negctrl_site1257]	9.745 ± 0.007
TAATAAATGGCTAGTTGTACAGAAATATAAATATTA [XGTACX_site4579]	11.1 ± 0.73
AGATTCAAAAATAAAACATGCAAAAATAAAACGTGC [TGCATGCA_site501]	9.95 ± 0.12
TTTTTTTTGTGTATTTGTACATAATATATATATATA [XGTACX_site7092]	10.9 ± 0.49
ATATTATATTTCTTTTGTACATATTATATAATATAT [XGTACX_site7198]	11.1 ± 0.54
TAATACCATTGTCATGCATGCACATTATTACTCTAA [TGCATGCA_site160]	9.95 ± 0.15
TCGTAATTTTTTTTTATATATTAGGAATTTATAAAA [XGTACX_negctrl_site409]	9.62 ± 0.11

Sequence	gcPBM binding intensity (ln)
ATTAATATAAAAAGGTAAATGGATGTAATATATATA [XGTACX_negctrl_site2]	9.94 ± 0.16
AAAAGGTATGTTATACATAGATATGCACATATATGT [TGCATGCA_negctrl_site96]	10.4 ± 0.19
GTAGGATTTTCTTTTGTGCGCAATATAAAAAGAAAA [GTGCAC_site9514]	10.6 ± 0.49
AAAATTGTTATTTTATGTACTTATATTTATTTATTT [XGTACX_site3478]	11.3 ± 0.79
CTTCTGTAATTATCACGTACATATAATAATTAAAAT [XGTACX_site8973]	11.3 ± 0.93
TTTTTATCTTTGCTGTGTACATAAATAAAAATAACT [XGTACX_site7625]	11.4 ± 0.88
ATAAATGACAGACACACACACAAAAAAAAAAAACAA [CACACA_site2626]	10.1 ± 0.42
ACCCTATCTGTAACTACACACCGCATATTGTTTACT [CACACA_site5661]	10.4 ± 0.22
AAATATTTATATGTTACACACTGTTTATAACTTTCT [CACACA_site6752]	9.95 ± 0.071
ATAGTTTAATTTATATGTACATATAATATTGATTTG [XGTACX_site7520]	11.2 ± 0.71
TATATTTTATATTGGTGTACAATTTTTTTTTTTTTT [XGTACX_site4291]	11.4 ± 0.91
TTTTTTTTGATAAGTTGTACAATGATATATATCCCT [XGTACX_site3560]	11.2 ± 0.79
CCTTTTTTTTTTTTATGTACTAAAATAAAATTAGAA [XGTACX_site5956]	11.3 ± 0.94
ACAATTTATATTATATGTACTTAAAAAGTTCGTAAA [XGTACX_site6421]	11.2 ± 0.79
TTTTATACATAAATATGTACGTATATATAATGAATT [XGTACX_site1337]	11.3 ± 0.73
GCCTCATCGTAGCAGTGTACGTTTTTTTTTTTTTTT [XGTACX_site8648]	11.5 ± 0.79
ATAACAACCCAATGTTGTACATTTAAATATAACGTA [XGTACX_site7114]	11 ± 0.51
TTCTAAAATTATATAGTGCAATTATATTAATTTTTC	9.785 ± 0.078
TATATATATTTATGTACACACACACCGATAAATAAA [CACACA_site4404]	11.6 ± 0.88
TATAACATATGACACACACACATACATACACAAAAA [CACACA_site6935]	10.4 ± 0.43
AACAAAATAAAAAAAACATGCAAGAATTCTTATATG [TGCATGCA_site714]	9.66 ± 0.18
ATTTGTATTGTATATGCACACATAGAACACTTTTTT [CACACA_site9373]	10.2 ± 0.16
TTACGCGCTTATTACACACACATACAAATAAGGATT [CACACA_site3486]	10.3 ± 0.25

Sequence	gcPBM binding intensity (ln)
AAAAATAAAAAAAATACATGCAATGAAACATTTATT [TGCATGCA_site263]	9.63 ± 0.18
TTATACAGATATTTAACACACATTTTATAAAGTGCC [CACACA_site4851]	9.87 ± 0.11
TTGTGTTTGAAAAAATGTACATGTGTCTTACAACAA [XGTACX_site8371]	11.3 ± 0.82
TAGTATCAATCTTATACATGCATAAAATAATTATAA [TGCATGCA_site1052]	10 ± 0.13
GTGTTCTTGTTATACACACACATATTTATATTTATA [CACACA_site6615]	10.4 ± 0.26
TTTTATTCATTAATTTGTACTTATCCTTTTGCTTAA [XGTACX_site1243]	11 ± 0.53
TCATTAATTAAATCTTGTACATATTCATATATATAT [XGTACX_site2241]	11.1 ± 0.49
AAAGTATAGATGTATACACACACCAAACGTTAAAAA [CACACA_site3081]	10.13 ± 0.014
TAAGCCAAGGGATAAATAAAATAACAAAATGAAATC [GTGCAC_negctrl_site601]	9.66 ± 0.36
TTTATTTATATAATTACACACATATATACGCAAATG [CACACA_site2794]	10.3 ± 0.27
GACACATATAAATATTAACACACATAATGAATTATA [CACACA_site8881]	9.815 ± 0.092
TAAAGTTTTTTTTTAACACACACATAATAAAATAAA [CACACA_site8042]	10.2 ± 0.22
TAAAAAAATAAAAAAAAAAAATTATAAAATTATATA [GTGCAC_negctrl_site302]	9.25 ± 0.071
AAATATATTATAAATTGTACGTTTATATATATTATT [XGTACX_site5110]	11 ± 0.71
GATGATGTTACTTAAGTGCATATAAATTATATTTTA [GTGCAC_site9940]	10.2 ± 0.18
ACATTATGCCATAAATGTACACATACATATACACAG [XGTACX_site1330]	11.3 ± 0.83
TAACTAAGGAATAATACACACAGAAATATATATTTA [CACACA_site344]	9.92 ± 0.042
AGCGTATTATACTGACGTACATTTTATGTAACTCCA [XGTACX_site2715]	11.4 ± 1.1
AACATAAAATGGATATGTACATAAAAATATATACTC [XGTACX_site7775]	11.2 ± 0.66
TACAACATATTCAAATGTACAAATATAGGAATGAAA [XGTACX_site2730]	10.6 ± 0.2
